Assay results as given in the supplement of paper PMC12217912.
The other results are listed elsewhere or left out. Sequences were assembled here from the parent chain. Values near 0.05 are background.

B1: TEV protease; numbered along this chain (parent)
chain: MGESLFKGPRDYNPISSSICHLTNESDGHTTSLYGIGFGPFIITNKHLFRRNNGTLVVQSLHGVFKVKDTTTLQQHLVDGRDMIIIRMPKDFPPFPQKLKFREPQREERICLVTTNFQTKSMSSMVSDTSCTFPSGDGIFWKHWIQTKDGQCGSPLVSTRDGFIVGIHSASNFTNTNNYFTSVPKNFMELLTNQEAQQWVSGWRLNADSVLWGGHKVFMVKPEEPFQPVKEATQL

Variants of: B1
Assay: raw area under fraction-flipped curve 0-4 h after induction (AUC4h, not background-subtracted), DNA-recorder readout of cleavage of the substrate (dimensionless); higher = more cleavage of the substrate by the protease variant
Conditions: temperature: 34 °C; time window: 0-4 h after rhamnose induction
Procedure: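 In vivo DNA recorder in E. coli TOP10(DE3) ΔrhaA at 34 °C. Each TEVp single-site mutant (parent TEVp 0) is paired with a single-site variant of the 7-mer TEVs (canonical ENLYFQ|S). The substrate sits between flexible linkers in a Bxb1-sfGFP-TEVs-SsrA fusion, so cleavage stabilises Bxb1 and speeds flipping of a recombination array, read by NGS. The value is the raw area under the fraction-flipped curve over 0-4 h after rhamnose induction (AUC4h), with ≥20 reads per time point. It is not background-subtracted; inactive controls average about 0.047.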
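Also: Bxb1 expression induced with 0.2% (w/v) L-rhamnose at OD600 near 0.5, cultures sampled hourly, flipped fraction per protease–substrate barcode pair counted by paired-end Illumina sequencing.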

| Variant | area with substrate ENLYCQS | area with substrate ENLYDQS | area with substrate ENLYEQS | area with substrate ENLYGQS | area with substrate ENLYHQS | area with substrate ENLYIQS | area with substrate ENLYKQS | area with substrate ENLYMQS | area with substrate ENLYNQS | area with substrate ENLYPQS | area with substrate ENLYQQS | area with substrate ENLYRQS | area with substrate ENLYSQS | area with substrate ENLYTQS | area with substrate ENLYVQS | area with substrate ENLYWQS | area with substrate ENLYYQS | area with substrate ENLYLQS | area with substrate ENLYAQS |
| --- | --- | --- | --- | --- | --- | --- | --- | --- | --- | --- | --- | --- | --- | --- | --- | --- | --- | --- | --- |
| C20N | 0.075 | 0.0511 | 0.0439 | 0.0428 | 0.0445 | 0.0655 | 0.0553 | 0.0695 | 0.0494 | 0.0295 | 0.0564 | 0.0663 | 0.0457 | 0.0536 | 0.0663 |  |  |  |  |
| C20Q | 0.0583 | 0.0384 | 0.0395 | 0.0584 |  |  |  | 0.054 | 0.049 | 0.0632 | 0.0533 |  |  |  | 0.0428 | 0.0482 |  |  |  |
| Q75K | 0.0686 |  | 0.0575 |  | 0.0679 | 0.0815 | 0.0286 | 0.0674 | 0.0607 | 0.0619 | 0.0657 | 0.0552 | 0.0602 | 0.0575 | 0.0568 | 0.0633 | 0.0413 |  |  |
| H76R | 0.0793 | 0.0613 | 0.0663 | 0.0852 | 0.0551 | 0.0889 |  |  |  | 0.0655 |  | 0.0711 | 0.0633 |  | 0.0835 |  |  | 0.0669 |  |
| V229C | 0.102 | 0.0595 | 0.0616 | 0.0724 | 0.0696 |  | 0.0523 | 0.096 | 0.0574 | 0.0819 | 0.0664 |  | 0.0663 |  | 0.136 | 0.0712 |  | 0.104 | 0.0875 |
| H47C | 0.0677 | 0.0774 | 0.0555 | 0.06 |  |  | 0.0455 | 0.0585 | 0.0668 | 0.0525 |  | 0.059 | 0.0757 | 0.025 | 0.0593 | 0.0549 | 0.066 |  |  |
| S26H | 0.0663 |  | 0.0684 | 0.0723 | 0.0665 | 0.133 | 0.0671 |  | 0.0678 | 0.0631 | 0.0613 | 0.0565 |  | 0.0833 |  |  |  |  |  |
| S26W | 0.0657 |  | 0.0649 | 0.0675 | 0.0558 | 0.0604 | 0.0539 | 0.0761 | 0.0619 |  | 0.0656 | 0.0578 | 0.0573 |  |  | 0.0665 | 0.0605 | 0.0648 |  |
| C111M | 0.0859 | 0.0521 | 0.066 |  | 0.0712 | 0.0962 | 0.0617 | 0.0711 | 0.0526 | 0.073 | 0.0641 | 0.0712 | 0.0869 | 0.0783 | 0.1 | 0.08 | 0.0539 | 0.066 |  |
| R81C | 0.0894 | 0.0597 | 0.073 | 0.0716 | 0.0642 | 0.0934 | 0.0665 | 0.0716 | 0.0606 | 0.0692 | 0.0581 | 0.0737 | 0.0628 |  |  | 0.039 | 0.0526 |  |  |
| E3M | 0.117 | 0.0496 | 0.0816 | 0.0433 | 0.0744 | 0.151 | 0.0626 | 0.112 | 0.0736 | 0.0736 | 0.0615 | 0.0658 | 0.0752 |  | 0.137 | 0.0841 |  | 0.0843 |  |
| H62A | 0.0817 | 0.0762 | 0.0646 | 0.0614 | 0.0756 |  | 0.0609 |  | 0.0852 | 0.0571 | 0.0642 |  | 0.0817 |  | 0.105 | 0.0764 | 0.0692 |  |  |
| N52P | 0.0547 |  | 0.0465 | 0.0611 |  | 0.0779 | 0.0545 | 0.0627 | 0.0667 | 0.0726 | 0.0638 | 0.0794 |  |  | 0.077 |  |  |  |  |
| Q234W | 0.0793 | 0.0651 | 0.0701 | 0.0599 | 0.0663 | 0.168 | 0.0306 |  | 0.0634 | 0.0335 |  | 0.0608 | 0.0744 |  | 0.112 | 0.0923 | 0.0628 | 0.116 | 0.0712 |
| P9F | 0.0655 | 0.0653 | 0.0685 | 0.0592 | 0.0677 | 0.0603 | 0.0249 | 0.0582 | 0.0667 | 0.0619 |  | 0.0666 | 0.064 |  | 0.0661 | 0.0549 | 0.0657 | 0.0686 |  |
| L77I | 0.059 | 0.0475 | 0.0531 | 0.0215 | 0.0636 |  | 0.0627 | 0.0584 | 0.0896 | 0.0615 | 0.0562 |  | 0.066 |  |  | 0.0392 |  | 0.067 |  |
| L77H | 0.0732 | 0.0651 | 0.0565 | 0.0643 | 0.0612 | 0.0715 | 0.0595 |  |  | 0.0477 | 0.0723 | 0.0597 |  | 0.0637 | 0.088 | 0.0628 | 0.0522 |  |  |
| T23C | 0.133 | 0.0717 | 0.0783 | 0.0665 | 0.0631 | 0.107 | 0.0825 | 0.0791 | 0.0727 | 0.0701 | 0.0623 | 0.0737 | 0.0563 | 0.0756 | 0.146 | 0.0874 |  | 0.0776 |  |
| T23N | 0.0881 | 0.0531 |  | 0.0508 | 0.0695 | 0.117 | 0.0575 | 0.0716 | 0.0727 |  | 0.0812 | 0.0499 | 0.0685 |  | 0.109 | 0.0665 | 0.0779 |  |  |
| G37I | 0.0603 |  | 0.112 | 0.0784 | 0.0558 | 0.0959 | 0.069 | 0.0797 | 0.0619 | 0.0657 | 0.0518 | 0.0554 | 0.0522 |  | 0.0866 | 0.0683 | 0.0666 | 0.0642 |  |
| E25R | 0.0682 | 0.0603 | 0.0667 | 0.0658 | 0.0603 | 0.131 | 0.0236 | 0.122 | 0.0631 | 0.0711 | 0.0652 | 0.0455 | 0.105 |  | 0.135 | 0.082 |  |  |  |
| E25G | 0.0724 | 0.051 | 0.0638 |  | 0.0563 | 0.103 |  | 0.0725 | 0.0655 | 0.0616 | 0.0714 | 0.063 | 0.0595 | 0.0691 | 0.0834 | 0.0667 | 0.0496 | 0.0714 |  |
| F49I | 0.0614 | 0.0576 | 0.0586 | 0.0584 | 0.0589 | 0.0657 |  | 0.0607 | 0.0535 | 0.0498 | 0.0574 | 0.0574 | 0.0699 | 0.0693 | 0.0801 |  |  |  |  |
| K46C | 0.112 | 0.0718 | 0.0546 |  | 0.0689 | 0.133 | 0.0631 | 0.0731 | 0.0717 | 0.0534 | 0.0575 | 0.0594 | 0.0736 | 0.0784 | 0.122 | 0.0736 | 0.0532 |  |  |
